According to the supplement of paper PMC12632987:
In all, about 1,800 sequences were measured (“median log2 fold change of GCK-ALFA target abundance (FLAG IP / Myc IP barcode read proportion)”: median about 0.14, lowest 2% from about -0.84 on). The list shows a part of the results.

T1: TRAF2, Q12933
T1 chain: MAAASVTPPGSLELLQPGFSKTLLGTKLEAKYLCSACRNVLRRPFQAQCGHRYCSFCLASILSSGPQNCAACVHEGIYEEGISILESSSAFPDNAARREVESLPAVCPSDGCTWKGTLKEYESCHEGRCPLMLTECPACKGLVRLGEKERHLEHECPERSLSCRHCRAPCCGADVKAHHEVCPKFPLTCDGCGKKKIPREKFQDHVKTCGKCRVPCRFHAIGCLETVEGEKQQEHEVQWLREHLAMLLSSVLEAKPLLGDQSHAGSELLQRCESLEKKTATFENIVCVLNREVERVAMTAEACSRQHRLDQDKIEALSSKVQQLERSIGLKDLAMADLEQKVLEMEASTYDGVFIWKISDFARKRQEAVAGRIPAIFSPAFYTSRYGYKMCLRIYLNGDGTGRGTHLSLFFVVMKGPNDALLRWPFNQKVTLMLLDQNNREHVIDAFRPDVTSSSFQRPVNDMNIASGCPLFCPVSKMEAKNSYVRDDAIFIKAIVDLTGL

B1: traf2_out_11_169_814 (protein)
chain: KEAEKNRKINDFALELNDEAKEKLLKFALELAKKAGLDVEEVKKIFEENKNKSLSAVAAALIEYFKSKGKEEEAAAVLEKYEELKEEINKKSTEKIKELE
B2: traf2_out_18_117_1792 (protein)
chain: MKREEIIAELRKIAEELDKAASELGTLMLEKWEELSPEEKSEAMDVLADLTEVRQRALLLIQRIEEEDLPVEEAIAEAEELRKKAEEALKKAKEMIEKIK
B3: traf2_out_13_95_1139 (protein)
chain: SKETAEKINEVADEMLEKVEEVLERLLEIAKEKGVGEKEIEEVLHLARYRSINEAIHKLKELAKKLPEMKEELEKAIEELEKIRREAGKRVAEILKEEKE
B4: traf2_out_9_108_2587 (protein)
chain: MSEEEKLEEIFEKVKKLAEEFLEEVDLSPELKEDLKAAIEQAEKLYKEGLKRTAIILLAISMARVAYEVGEEAVKWLLERLKEIDERAYSAARRMVELLK
B5: traf2_out_14_149_1249 (protein)
chain: SHTEERKKALKEAAKLMEEIIKILQEALEAGSTEVDKEKIRKLLEEAREILRKQGFVLGHLLAMEEMLETTKEWTLEKIREFLELAERARESLEVLAEML
B6: traf2_out_14_149_1234 (protein)
chain: SAEAELFKAAAEMYEKAAEALKEVLKLLEEGKVEEAKKLLKETIKELREYGEKHGVTVSIVFELEEILKLLDENVEEAKKRAKEALERAKSAAEAARSLA
B7: traf2_out_8_174_2561 (protein)
chain: KERERLKRAANLGLKWQEKIDEIKKKREELEKESLEKAVAYTEKESAALLKEIEEEAKRFKEEEDEEEYELLNRVLNSARTRVENLLKGTKILAEAKKKA
B8: traf2_out_9_108_2589 (protein)
chain: MSREEELEETYERVLALVREFLERFPVPEELREALEAAIEQAERLRAEGLKEEAIVLLAIDAARVAYELGDEAVEWLLAELERIDPRAASAARRMVELLK
B9: traf2_out_1_158_906 (protein)
chain: STAVNTLYAVATSIADVYAELAKERGLEKAAALLEKLKEDIKELYEKNKNASLEEFAKKVLELIEEKEKESESLPEEDKALVDIAFRQIKSGVEQVVKLA
B10: traf2_out_16_171_1438 (protein)
chain: SAAAAEEALKAEMEAEVQRLIDRMETAVEMTPLIMKETGLSKEQIAKGVRSTFTDRIEALRARWAERTKDASPEVKAHVAELLARAEAALDEAIAAILAK
B11: traf2_out_13_95_1102 (protein)
chain: SRELAEEIMKIADEMIDKANEILEELLKIAKEKGVAEEEVKEALYLAEHRSIREAIHKLKELAKEYPELKEEFEEAIEKLEKLIEEAGKKVAELIKEEKE
B12: traf2_out_9_17_2623 (protein)
chain: AEAKKKEQEDALEVVEELLKKLIEEGLITEEEAKEILEKVKKAIEEGKSVDEVKALFLGSIASILLFKKKYDVKTAQKIVGEVYRRYNELMAERKAERAA
B13: traf2_out_6_156_2416 (protein)
chain: MVEEILKEALEKVKELIKELAKAPESKKIQYISKIAGTAYRALQKLREAGASLEEIEEFAKRFLEETKKLAKEAGLPEDTINLLLSALQAVFDVAIAEAK
B14: traf2_out_14_149_1260 (protein)
chain: SATEERRRALREALELFERAAELLAAAIAAGSNDLDVEELRRLLEEAREILSKQGFVLGSLLAIEELLEEAEELTEEDLRRLLELAERAAESLEVLAEML
B15: traf2_out_17_162_1589 (protein)
chain: AELEERLKRIEERLEELEKELEELKKKLERIKELSKEELTDLLVEASEKRREARELLVEIESLKDELPAEEYERLSTRAEELAEEFQRIANAFYNELLKK
B16: traf2_out_6_169_2493 (protein)
chain: SEKEKLKKELERHKNNAKDLLNIAKTILEQVKKKKDKEYIKNALEAMETMLNALKRQYDLAIEAATKLGNEEEAKKLKEQKEKDTAEIQAYIDEIEKLLK
B17: traf2_out_1_158_923 (protein)
chain: DTKKKLMLGVVELIGQNAIDSARDRGDEETAAKLEEVVEEIVKLVKELLIEKNKSVEEVIEAIDKLAEEAAAKADPETAAEIERLRRQIISGLRQVDKLM
B18: traf2_out_18_117_1767 (protein)
chain: SRREEIIERLEEIAERLGRAASKLGKAVLENWEKLTPEEKSEAMDVLADLTEVRRKALLLIQEIREENLPVEEAEKRLEELEKEAEKALKEAEEMIEKIE
B19: traf2_out_13_95_1196 (protein)
chain: EEEKRKKYKEETNKIADELLDHADAVIDRIEAATGDPALGAELRRVLDLHGVRALIHFIREQAAARPEYRALFEEAAESLEAKRREAGRRVAEKEKEIEE
B20: traf2_out_13_95_1137 (protein)
chain: SAETAEEIMAVSDEMLDKVDEILKELLEEAKKKGIGVEEIEEVLYLARYQSVNEAIHKLEKLAKEKPEMKEELEEAIKKIREIRREAGRRVAEILKKAKE
B21: traf2_out_6_3_2513 (protein)
chain: SDEEERRRNEEALEEASEMSPETLKRAARTALARLKALVADPNATETDVLAAASFITTLLEILRRNAEKHPELAEELAAFAAEVEAEMEALLAEWKAKRA
B22: traf2_out_17_162_1630 (protein)
chain: SPLEEEIARYKKELEEIRKKVKELEEKAKNIEKLSKEELTDLLVEASEARRKARELAERIEELRKKHNREELDELLEEARELAEKFQRIANLFYNELLKK
B23: traf2_out_6_166_2474 (protein)
chain: DEELLARIREVVEKFSEYSPEDIIEAFEKIAKERSDHRAIMARQLASGVRKAQKAGLPITTIISAMADGWIALGVDPEDILELLEEVLKEVEKIRKEKEE
B24: traf2_out_6_166_2466 (protein)
chain: EEELLARIREIARRLGEYEPEVVIEAAERVAAELDDERALLARQLASGVRQGQKAGLPTETVVTALADGFIALGVPVEDILELLERVLRQAEELAREREA
B25: traf2_out_15_48_1360 (protein)
chain: STEALRATAREVADLIDATLDEVAEELRALLPQAPPSVRPLLERAIEVASRHRSINDVIALLDQAIAQADPELAARLEALRARLLETRRRASALVNETLA
B26: traf2_out_17_162_1536 (protein)
chain: SPEDERLAELQKRLEELEKKLEELEKKLKNIEKLSKEELTDLLVEASELRREARELAEELRELAEKTGSPEAEELRERAEELAEKLQRIANEIYKELEKK
B27: traf2_out_11_79_935 (protein)
chain: EEKREELLRLLEEALRLLEELIKKLEAGTISPEERAEMLDEIERLLQRAAMLALELGLSDVLVEISKAKRYVRLAYSGDLEALRKAKEHLERAIELVKKE
B28: traf2_out_11_104_639 (protein)
chain: LTREQAREFNDFAMAKEDEARAVAAELAAALEAAGETAAAARVRAALAHPGAGISTFRNLLEDLLPTLSPAAAAQARAAIARLAALQREVSAKLNELEAK
B29: traf2_out_12_50_976 (protein)
chain: GPEEEEEAENERFREEADRILAERDRVWAATGGDTAAAAAALIERAKKSKEDAKLALAVARALLSELLQRGEDTSVIAAAIDEIEKILEELEEKEEAAKK

Target: T1, TRAF2, Q12933
Test: median log2 fold change of GCK-ALFA target abundance (FLAG IP / Myc IP barcode read proportion) (log2 ratio); each designed protein is fused to an ALFA-tag nanobody in HEK293 cells to bring the named protein to FLAG-tagged glucokinase (GCK); Myc marks an untargeted standard; higher = target protein stabilised (more abundant)
Conditions: target protein: 3xFLAG-MCP-GCK-ALFA reporter; HEK293 landing pad (RPLP)
Outline: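 The readout is target abundance, the per-binder median log2 ratio of FLAG to Myc barcode read proportions. It came from HEK293 landing-pad cells carrying a recombined ALFA-nanobody-fused binder library, induced with 2 μg mL^−1 doxycycline and transfected with a plasmid for a FLAG-tagged target and a Myc-tagged standard. After 48 h, lysates were immunoprecipitated with anti-FLAG and anti-Myc, and circular RNA barcodes were reverse transcribed, amplified and sequenced. Each barcode needed a proportion of at least 10^−7 in both replicates and each binder at least 3 barcodes per replicate, a pseudocount of 10^−6 was added, and the replicates were pooled.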

Going from B1 to B2, the “median log2 fold change” value rises from 0.0171 to 0.421.

Compared with B3, B4 is lower in “median log2 fold change” value: 0.348 for the first, -0.666 for the second.

B5 and B6 are within 0.2 log units of each other in “median log2 fold change” value: -0.109 for the first, -0.264 for the second.

B7 and B8 are within 0.2 log units of each other in “median log2 fold change” value: 0.00446 for the first, -0.0346 for the second.

Going from B9 to B10, the “median log2 fold change” value falls from 0.0998 to -0.457.

Compared with B11, B12 is higher in “median log2 fold change” value: -0.486 for the first, -0.242 for the second.

B13 and B14 are within 0.2 log units of each other in “median log2 fold change” value: -0.0768 for the first, 0.0539 for the second.

Going from B15 to B16, the “median log2 fold change” value falls from 0.162 to -0.365.

B17 and B18 are within 0.2 log units of each other in “median log2 fold change” value: -0.354 for the first, -0.224 for the second.

Compared with B19, B20 is lower in “median log2 fold change” value: 0.157 for the first, -0.559 for the second.

B21 and B22 are within 0.2 log units of each other in “median log2 fold change” value: 0.227 for the first, 0.115 for the second.

Going from B23 to B24, the “median log2 fold change” value rises from -0.275 to 0.103.

B25 and B26 are within 0.2 log units of each other in “median log2 fold change” value: 0.3 for the first, 0.429 for the second.

Going from B27 to B28, the “median log2 fold change” value falls from 0.483 to 0.214.

In the case of B29, the “median log2 fold change” value is reported as 0.33.
